Assay results published in the supplement of paper PMC3334620.
Whole data set: some 33,000 sequences, median “E-score (-0.5 to 0.5)” near -0.035, cut for the highest 2% near 0.35. The list shows a part of the results.

The sequences below were run against T1, Pdr3 (UniProt P33200) (assay: PBM E-score (8-mer binding enrichment) (E-score (-0.5 to 0.5)); higher = stronger / more preferred TF binding; most listed sequences are background and not binding sites). Conditions: protein concentration: 200 nM; construct: GST-full length.
T1 sequence: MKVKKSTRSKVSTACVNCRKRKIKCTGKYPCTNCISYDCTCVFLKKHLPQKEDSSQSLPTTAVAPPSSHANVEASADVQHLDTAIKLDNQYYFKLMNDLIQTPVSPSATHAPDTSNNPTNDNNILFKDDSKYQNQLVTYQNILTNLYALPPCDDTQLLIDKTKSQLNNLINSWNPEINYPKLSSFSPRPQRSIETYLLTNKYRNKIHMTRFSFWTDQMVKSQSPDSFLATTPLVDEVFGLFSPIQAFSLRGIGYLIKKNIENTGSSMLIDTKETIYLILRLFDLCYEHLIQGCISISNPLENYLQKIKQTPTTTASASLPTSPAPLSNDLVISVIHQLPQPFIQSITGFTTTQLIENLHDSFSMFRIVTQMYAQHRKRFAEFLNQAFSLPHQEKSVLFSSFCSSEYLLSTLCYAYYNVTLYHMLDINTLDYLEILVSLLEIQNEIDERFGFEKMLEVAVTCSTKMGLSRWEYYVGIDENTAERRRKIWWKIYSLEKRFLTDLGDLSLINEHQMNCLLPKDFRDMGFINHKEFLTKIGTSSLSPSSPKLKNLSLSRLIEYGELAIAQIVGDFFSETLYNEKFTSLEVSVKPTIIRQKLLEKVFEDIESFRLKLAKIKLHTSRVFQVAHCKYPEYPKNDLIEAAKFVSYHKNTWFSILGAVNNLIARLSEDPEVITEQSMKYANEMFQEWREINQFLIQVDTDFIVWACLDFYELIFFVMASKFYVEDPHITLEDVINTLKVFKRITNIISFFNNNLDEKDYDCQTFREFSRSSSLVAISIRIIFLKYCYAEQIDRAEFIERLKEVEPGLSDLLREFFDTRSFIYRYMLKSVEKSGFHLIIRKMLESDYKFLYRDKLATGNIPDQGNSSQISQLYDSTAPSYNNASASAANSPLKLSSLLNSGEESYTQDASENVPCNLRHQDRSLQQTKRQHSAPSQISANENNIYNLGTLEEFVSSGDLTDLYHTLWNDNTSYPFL
In short: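 Using PURExpress in vitro transcription/translation, GST-tagged yeast transcription factors were made in full-length or DNA-binding-domain form. These were applied at about 100-200 nM to double-stranded universal all-10-mer Agilent arrays, and bound protein was detected with fluorescent anti-GST. Scans were normalised with masliner before the Universal PBM Analysis Suite assigned E-scores to ungapped eight-base words pooled with their reverse complements.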

Sequence | PBM E-score
GTTTGTTA | -0.1
AAACTGCG | -0.129
ATGCGCGG | 0.355
ATTGATCG | 0.114
ATGGCAGA | 0.0132
ATGATGCG | 0.079
CCGCGCCG | 0.353
CCCGAGTC | 0.165
CAACGTGA | -0.19
CACACCAC | 0.0393
AATCCTTC | -0.114
TACGTTCA | -0.255
AGGGGGGC | -0.222
GAAGCGGC | -0.108
AACTAGCC | -0.0913
GACGTGAA | -0.0437
ACAGCAAG | 0.0325
ACGGCCCC | -0.241
CTAGTCGC | -0.228
CAGGAACA | -0.0115
CTAGACAA | -0.152
CCTTGCCC | 0.155
AGCCAAGG | -0.152
AAAACTTA | -0.0367
TCCGTCAA | 0.375

Sequence | PBM E-score
ATAACTTG | -0.0945
ATTTACAA | -0.16
AATTTCAG | -0.074
AATAACCG | 0.0168
CAAAAAAA | 0.211
CATCAGCG | 0.0028
TATATGGA | -0.0393
ACGTGTTC | -0.0582
TACGCTAA | -0.197
AGTTCCAC | -0.00065
ATCCAAAC | 0.0577
CGGCGCGC | 0.245
AACCAGCC | 0.104
AGATTCAC | -0.123
CCAAGTGG | -0.00255
TATATTCA | 0.121
GTATTGCA | -0.0564
CCCGATAA | 0.123
TCTGTGAA | -0.0705
CAGTTATA | 0.0428
TAGTACCA | -0.112
CGCTCGGA | 0.359
AACCCCTC | -0.12
CCGTAGAC | 0.0889
ACCTTCCT | -0.244

Sequence | PBM E-score
CAATAACG | 0.0557
CCCTCTAA | -0.272
CAACTCGC | 0.0348
ATAGCGAA | -0.113
GTCACAGA | -0.0547
CACGTACG | -0.2
AGACGGTC | -0.207
TGAGAGAA | -0.168
CTTATTTA | -0.17
TAGGCCGA | 0.043
CAACATGC | -0.0624
CTGTTTTA | -0.0295
CGAGTGGA | 0.0186
AAAAGGTC | -0.215
GCACCGGA | 0.377
CCAATACC | 0.0817
CGTCCGTA | 0.176
ACCTAGAT | -0.0892
CTTGTCCA | -0.0525
CAACAATC | -0.0101
ATAAGCAG | -0.127
ACCCGGGC | 0.424
ACTATACC | 0.0352
CGTACGGA | 0.281
CCTAGAGG | -0.243

Sequence | PBM E-score
AAGTTACT | 0.00994
GTTGACCA | -0.0689
TGTTCTAA | -0.0541
AACGGGAC | 0.217
CACCCCGA | 0.17
GCACGTCC | 0.115
CGCGCGCA | 0.347
ATCCTCGC | 0.0538
GGTGTCTA | -0.197
AGGGTAGC | -0.151
GGGTGAAA | 0.0587
AGATTAAG | -0.0641
AGTCGACG | 0.213
ATTAACTC | 0.0635
TGGCGCAA | -0.0179
GCCGTGAA | 0.228
AGAGCACC | -0.104
TCAATACA | -0.0685
AATGAAAG | -0.103
AAGAGTCA | -0.245
AGCGAGTG | 0.0622
GTGTGCTA | 0.00872
ATAACACC | 0.11
CATGCGTC | -0.0338
ATATCTCG | 0.059

Sequence | PBM E-score
AGCCGAGC | 0.267
GAGCGAAC | -0.176
CGGTATGA | 0.117
GAGCGTCA | -0.0649
AGCGGACA | 0.154
ACATAAAC | -0.00238
AATAAACC | 0.167
ATTAACGC | -0.0216
TCGCCAGA | -0.206
AGACAGCA | -0.0918
CATACTCG | 0.139
ACCGAAAG | -0.146
AAGTGTTA | -0.0139
TACTACAA | 0.119
ACGTGATA | -0.0938
AAAAAAGA | -0.115
CTACTCGA | -0.0547
TCACCGAA | 0.0178
AATTAGCA | 0.103
CTAGTACC | -0.184
GTAGGATA | -0.0665
ACGAGAAG | -0.278
AATCCACG | -0.0307
TAAGCATA | -0.125
ATGAAGTC | -0.212

Sequence | PBM E-score
CAGTCCAA | -0.141
ACACGAGA | -0.0914
ATGGGCCA | 0.00407
AATATAAC | 0.00257
AAATGGTT | -0.099
CGCCCGAC | 0.223
TACGCCCA | -0.147
CGGTATAG | 0.095
CATCCTTC | -0.104
CTTAATGC | -0.108
AAACAATT | 0.115
AAACGGTG | -0.255
CTAATTAA | -0.0717
AACAATAT | 0.156
AGGGGAGC | -0.0507
CACCGGAG | 0.253
ACAAACCC | 0.0124
GGACGGCC | 0.188
AAGTCTAA | -0.234
CAATTTAG | -0.0844
CGGGTCGC | 0.184
TAGGTAAA | -0.253
TGTAGAAA | -0.142
TCTCATAA | -0.236
ATGCTCAC | -0.048

Sequence | PBM E-score
CCTTCGCC | -0.0542
ATTCGCGG | 0.253
ACATCTCC | 0.235
AACCTGGA | -0.0353
CCCCTCAG | -0.174
CATACAAC | -0.128
CCGGATTC | 0.337
CTCCTACA | -0.157
AACCACTT | -0.0646
AGCTTCCC | -0.0703
TGCTACAA | -0.0149
GAGAAAGC | 0.012
CCAGTTGA | -0.106
GATAGATC | 5e-05
ACTCCTGA | -0.156
AACCACGT | -0.24
TACCTGCA | -0.045
CACTCGGA | 0.328
ACCCCGCT | 0.211
GGATGCTA | 0.0348
ATGTCCCA | -0.149
ATTCCAAG | -0.0466
AATCATAA | -0.0865
ATGTGGTC | -0.0765
TAAGTGCA | -0.146

Sequence | PBM E-score
CCGCTACC | 0.231
AGACACTA | -0.0235
ACCCAAAT | -0.11
GATAGGGA | -0.147
GAAATCAC | 0.186
AAAATTCT | -0.0203
CTGTTCCC | 0.0618
CGGGGATC | 0.28
AGTCGCCG | 0.168
AAGTTGTC | 0.035
CAGCTCGA | -0.0456
AGAAACGG | 0.19
GCTGATTA | 0.0645
GACGCGTA | -0.0308
GGTAACAA | 0.12
CATACTAC | 0.072
AGTACACG | -0.00706
TCCCACGA | 0.0987
CCGGACTA | 0.333
GCTAGGTA | -0.162
AGGGTAAG | -0.118
TAAACGCA | -0.104
AGATGAAT | -0.18
CACACGAC | -0.104
AAGTTGTG | -0.00949

Sequence | PBM E-score
AACAAATA | 0.158
ATTACACG | 0.11
AAAAACGT | -0.168
AGGCTTAC | -0.123
CGGCATAC | 0.168
AGGCTGAT | -0.18
CCAAAAAA | 0.0515
GCTCCCCC | -0.215
GGAGCGAC | 0.0529
CGTTGGGC | -0.00619
GAACTCTA | -0.107
GAACGTAC | -0.122
ATAACTCA | 0.00779
CTCTTTAA | -0.0879
ACTCTTGA | -0.186
GGGCATAA | -0.079
TCAATTAA | -0.0675
CATACGTA | -0.00389
GTGATCTA | 0.0739
